Test results as given in PubChem BioAssay AID686979 (National Center for Advancing Translational Sciences (NCATS), 2013).
Several values for one entry are separate records, joined by “and”; a condition that tells them apart may be missing. Equal entries are not always repeated. Screen size: about 420,000 compounds; about 50,000 (12%) were called active. The shares of active, inactive and inconclusive entries below differ from those in the screen. Calls follow the shape of the dose curve; as a rule, active = well fitted inhibition curve with a large enough effect; inconclusive = small, poorly fitted or top-dose-only effect; inactive = flat fitted curve, though single readings scatter. Potencies of inconclusive entries are doubtful fits and often do not repeat.

experiment: qHTS for Inhibitors of human tyrosyl-DNA phosphodiesterase 1 (TDP1): qHTS in cells in presence of CPT; conditions: chicken DT40 Tdp1-/-;hTDP1 cells + 20 nM CPT, ATP luminescence, 48 h; activity change, negative = growth inhibition: at 46.2 µM (top of the series); also: nearly all actives have a fitted effect of over 55% in size
Procedure, shortened: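 Chicken DT40 Tdp1-/- cells stably complemented with human TDP1 were seeded at 400 cells/well in medium containing 20 nM camptothecin, exposed to pin-transferred compounds, and grown at 37 °C for at least 48 hr. Viability was read as ATP luminescence.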
% is scaled to controls: 0 for no effect and ±100 for the full control effect; potency is read from the fitted curve at half-maximal effect; tags tell the direction and shape of the fitted curve.

Compound	Potency	activity change, negative = growth inhibition
CC(=O)C1(C)CCC2C3C=C(C)C4=CC(=O)CCC4(C)C3CCC21C (centres undefined)	active: 18.4 µM	–
CCOC(=O)c1c(C)n(C)c2cc(CN(C)C)c(O)c(S(=O)(=O)c3ccccc3)c12	inactive	–
Cc1ccc(NC(=O)CSc2nc3ccccc3c(=O)n2Cc2cccs2)cc1	inconclusive: 0.517 µM [inhibitor, full curve, poor fit]	–
Cc1ccc(C2NC(=NCc3ccccc3)Nc3nc(C)cc(=O)n32)cc1 (centres undefined)	inactive	–
COc1ccccc1NC1=C(Cl)C(=O)OC1OC(=O)c1ccco1 (centres undefined)	active: 23.1 µM	–
NS(=O)(=O)c1ccc(NC(=O)COc2ccc(S(=O)(=O)NC3CCCCC3)cc2)cc1	inactive	–
COc1ccc(-n2cc(CN(C)C3CCOCC3)c(-c3cccc(F)c3)n2)cc1	inconclusive: 23.1 µM [inhibitor, single point]	–
Cc1ccc2nc(N(CCCN(C)C)C(=O)c3ccc4ncsc4c3)sc2c1	active: 16.4 µM	–
O=C(COC(=O)/C=C/c1ccc(C(F)(F)F)cc1)NCCC1=CCCCC1	inactive	–
CCC1CCC(N2CCN(c3ccccc3F)CC2)CC1 (centres undefined)	–	inconclusive: -34.9% [inhibitor]
Cc1ccc(-c2nc3c(Cl)cc(C(F)(F)F)cn3c2Cc2cccc(Cl)c2)cc1	inconclusive: 29.1 µM [inhibitor, single point]	–
COc1ccc(C)cc1NCc1ccc([N+](=O)[O-])cc1	inactive	–
Oc1ccccc1C1CCCCC1c1ccccc1 (centres undefined)	inconclusive: 20.6 µM [inhibitor, partial curve]	–
COc1ccccc1-c1cncnc1NCc1cccnc1	inactive	–
CC(C)C[C@H]1COc2cc(N3CC[C@H](O)C3)ccc2S(=O)(=O)N1	inactive	–
Cc1ccc2nc(-c3cccc(S(=O)(=O)N(C)C)c3)cn2c1	inconclusive: 29.1 µM [inhibitor, single point]	–
CN(C)Cc1ccccc1-c1nc(NC2CC2)c2ccccc2n1	inconclusive: 29.1 µM [inhibitor, single point]	–
CSc1ccc(CN2CCC(C)(Oc3ccccc3)C2)cc1 (centres undefined)	inconclusive: 29.1 µM [inhibitor, single point]	–
O=C(Cc1ccccc1)Nc1ccccc1Sc1ccccc1	inactive	–
O=C1CS(=O)(=O)C2(C(=O)N(Cc3ccccc3)c3ccccc32)N1c1ccc(F)c(Cl)c1 (centres undefined)	inactive	–
COc1cc(CCC(=O)Nc2cc(C)cc(C)c2)cc(OC)c1OC	inactive	–
O=C(CN1C(=O)CSC1=O)N1CCc2ccccc2C1	inactive	–
CCn1c(CSc2nc3ccccc3s2)nc2ccccc21	inconclusive: 25.9 µM [inhibitor, single point]	–
Cc1ccccc1N(C(=O)Cn1nnc(-c2cccs2)n1)C(C(=O)NCCC(C)C)c1ccco1 (centres undefined)	inconclusive: 29.1 µM [inhibitor, single point]	–
Cn1c(=O)c2c(nc(Br)n2CCSc2nc3ccccc3o2)n(C)c1=O	inconclusive: 29.1 µM [inhibitor, single point]	–

Compound	Potency	activity change, negative = growth inhibition
Cc1ccc(NNC(=O)c2c(C)noc2C)cc1Cl	inactive	–
COc1ccc(Oc2ncc3nc(C)c(=O)n(Cc4ccc(F)cc4)c3n2)cc1	inconclusive: 20.6 µM [inhibitor, single point]	–
Cc1ccc(NC(=O)C2CCN(c3ncnc4c3nc3n4CCCCC3)CC2)cc1Cl	inconclusive: 29.1 µM [inhibitor, partial curve, poor fit]	–
Cc1c(C(=O)N2CCCCC2)sc2ncnc(NCCc3ccccn3)c12	inconclusive: 25.9 µM [inhibitor, single point]	–
Cc1ccc(/C(O)=C2\C(=O)C(=O)N(C)C2c2ccc(F)cc2)cc1 (centres undefined)	inactive	–
O=C1CCc2cc(NS(=O)(=O)c3ccccc3)cc3c2N1CCC3	inconclusive: 29.1 µM [inhibitor, single point]	–
O=C(Nc1ccc(Cl)cc1)NC1CCCCC1Cc1ccco1 (centres undefined)	inconclusive: 29.1 µM [inhibitor, single point]	–
CCOC(=O)C1=CCC(c2ccco2)N(S(=O)(=O)c2ccc(C)cc2)C1 (centres undefined)	inconclusive: 29.1 µM [inhibitor, partial curve]	–
CC(C)(C)OC(=O)n1cccc1/C=C1\c2ccccc2C(=O)N1c1ccccc1	active: 20.6 µM	–
CC(OC(=O)Cc1n[nH]c(=O)c2ccccc12)C(=O)Nc1ccccc1[N+](=O)[O-] (centres undefined)	inconclusive: 16.4 µM [inhibitor, single point]	–
COCCNC(=O)CNC(=O)c1nn(-c2ccc(OC)c(Cl)c2)c(=O)c2ccccc12	–	inconclusive: -30.7% [inhibitor]
CCCCC(=O)c1ccc(O)cc1O	inactive	–
CCN(CC)C(=O)C1=C(C)N(CCCOC)C(=O)C(CC(=O)NCc2cccs2)C1 (centres undefined)	inactive	–
COc1ccccc1C(=O)Oc1c(Sc2ccccc2)c(C)nn1-c1ccccc1	inconclusive: 23.1 µM [inhibitor, single point]	–
S=c1[nH]ccn1Cc1ccccc1	inconclusive: 18.4 µM [inhibitor, single point]	–
Fc1ccccc1COc1ccc(Br)cc1CNCC1CCCO1 (centres undefined)	inconclusive: 23.1 µM [inhibitor, single point]	–
CC(C)Sc1nc(N2CCOCC2)c2c(c1C#N)CC(C)(C)N(C)C2	active: 18.4 µM	–
Fc1cccc(/C=N/Nc2nc3ccccc3[nH]2)c1	inconclusive: 25.9 µM [inhibitor, single point]	–
COc1cc(OC)cc(C(=O)Nc2ccc3nc4n(c(=O)c3c2)CCCCC4)c1	inconclusive: 20.6 µM [inhibitor, single point] and inconclusive: 14.6 µM [inhibitor, partial curve]	–
C(=C\c1ccccc1)/CN1CCN(C(c2ccnc3ccccc23)c2nnnn2-c2ccc3c(c2)OCCO3)CC1 (centres undefined)	active: 16.4 µM	–
CSc1ccccc1C(=O)Nc1cc(C)cc(C)c1	inconclusive: 29.1 µM [inhibitor, single point]	–
O=C(Nc1cc(-c2ccc(Cl)cc2)no1)c1ccc(F)cc1	inactive	–
COc1ccccc1/C=C/C=N/NC(=O)c1cc(-c2ccc(C)o2)[nH]n1	inconclusive: 29.1 µM [inhibitor, single point]	–
Cc1ccc(C)c(N2CCN(C(=O)c3ccc4c(=O)n(CCc5ccccc5)c(=O)[nH]c4c3)CC2)c1	active: 20.6 µM	–
COc1cc(-c2nc(C(=O)NC3CCCCC3)cc3c2[nH]c2ccccc23)cc(OC)c1OC	active: 16.4 µM	–

Compound	Potency	activity change, negative = growth inhibition
COc1ccc(OC)c(-n2c(=S)[nH]c3c(sc(=S)n3-c3ccccc3C)c2=O)c1	–	inconclusive: -30.5% [inhibitor]
CCOC(=O)N=Nc1c(O)n(Cc2ccccc2)c2ccccc12	inconclusive: 20.6 µM [inhibitor, single point]	–
O=C(CSCc1cc(=O)n2ccsc2n1)Nc1ccc(F)cc1	inactive	–
CNC(=S)NCCc1ccc(OC)c(OC)c1	inactive	–
O=C1Nc2ccc(I)cc2/C1=C/c1cc(Br)c(O)c(Br)c1	active: 10.6 µM and active: 13 µM	–
CCCNc1sc(S(=O)(=O)CCC)nc1S(=O)(=O)c1ccc(C)cc1	inconclusive: 25.9 µM [inhibitor, single point]	–
CCNC(=O)C1(C)CCCN(C(=O)c2ccc(F)c(C)c2)C1 (centres undefined)	inactive	–
COc1ccc(NC(=O)C(c2ccnc3ccccc23)n2c(=O)c(-c3ccco3)nc3ccccc32)cc1 (centres undefined)	inconclusive: 23.1 µM [inhibitor, single point]	–
CC1CC(C)CN(CC(=O)NC(c2ccccc2)c2ccccc2)C1 (centres undefined)	inconclusive: 16.4 µM [inhibitor, single point]	–
CC1(c2ccc(Cl)cc2)NC(=O)N(CC(=O)N2CCc3ccccc3C2)C1=O (centres undefined)	–	inconclusive: -31.8% [inhibitor]
O=C1c2ccccc2NC(c2c(Cl)cccc2Cl)N1Cc1ccccc1 (centres undefined)	active: 16.4 µM	–
CCOC(=O)c1[nH]c2c(c1Cc1ccccc1OC)C(=O)CC(c1ccccc1)C2 (centres undefined)	inconclusive: 16.4 µM [inhibitor, single point]	–
CCCCn1c(=O)c2oc3ccccc3c2n(Cc2ccccc2C)c1=O	inconclusive: 29.1 µM [inhibitor, single point]	–
CN(C(=O)c1cccc(C#CC(C)(C)O)c1)C1CCCN(Cc2ccccc2F)C1 (centres undefined)	inactive	–
COc1ccc(C(=O)C(CN2CCOCC2)c2ccccc2)cc1F (centres undefined)	active: 4.11 µM	–
CCC(CC)c1nc(C#N)c(NC(C)c2ccccc2)o1 (centres undefined)	inactive	–
COc1cc(NC(=O)C2=CC(c3ccco3)=NS(=O)(=O)N2C)cc(OC)c1OC	inactive	–
CC12COC3(C(=O)Nc4ccc(F)cc4)CC1CCC32C (centres undefined)	inactive	–
COC(=O)c1cc(NC(=O)N2c3ccccc3Sc3ccccc32)cc(C(=O)OC)c1	inconclusive: 16.4 µM [inhibitor, single point]	–
COc1ccc(CC(C)N2CCN(c3ccccc3OC)CC2)cc1OC (centres undefined)	inconclusive: 10.3 µM [inhibitor, partial curve]	–
COc1ccccc1N(C)S(=O)(=O)c1ccc(C(=O)OCC(=O)N2CCC2)cc1	inconclusive: 18.4 µM [inhibitor, single point]	–
COc1cc(C(=O)Nc2nc(-c3ccc(F)cc3)cs2)ccc1OCC(=O)N1CCOCC1	active: 18.4 µM	–
CCCN=Cc1c(CCC)[nH]n(-c2nc3ccccc3s2)c1=O	inconclusive: 29.1 µM [inhibitor, single point]	–
COc1cccc(CNC(=S)Nc2ccc3c(c2)c(=O)n(C)n3Cc2ccccc2)c1	inconclusive: 29.1 µM [inhibitor, single point]	–
